From doi:10.1101/2024.11.25.624572 (bioRxiv, 2024)
Blank lines part the entries; values can stand above or below the binder they belong to.

How the values were obtained:
[1] = target: T1, α-Syn fibrils (from N-terminally acetylated human α-Syn) (human, UniProt P37840, N-terminal acetylation); assay: co-sedimentation
[2] = target: T1, α-Syn fibrils (from N-terminally …); assay: air AFM imaging

binding result [1]: binds
B1: PDZ domain of human HtrA1 (domain or fragment)
chain: not shown

binding result [2]: binds
B2: HtrA1* (catalytically inactive human HtrA1 without the N-terminal domain, S328A) (domain or fragment)
chain: not shown
